Structures are written as SMILES. Counter-ions that a name gives are not always drawn.

For the experiment, the target named is XIAP BIR2 (His-BIR2 (124-240/C202A/C213G)) (Homo sapiens (Human), UniProt P98170, C202A/C213G). The settings on record: read-out: XIAP-BIR2 AlphaScreen IC50; 50 nM His-BIR2 (124-240/C202A/C213G), 50 nM Biotinylated SMAC peptide. (In general: In Alpha technology, singlet oxygen from a donor bead excites a nearby acceptor bead.)
On to `CC[C@H](c1ccccc1)N(Cc1ccc(C(=O)N[C@H]2C[C@@H](C(=O)N[C@@H]3CCCc4ccccc43)N(C(=O)[C@@H](NC(=O)[C@H](C)NC)C(C)(C)C)C2)cc1)C(=O)[C@@H]1Cc2ccccc2CN1C(=O)[C@@H](NC(=O)[C@H](C)NC)C(C)(C)C` [Example 20, (S)-2-((S)-3,3-Dimethyl-2-((S)-2-(methylamino)propanamido)butanoyl)-N-(4-(((3S,5S)-1-((S)-3,3-dimethyl-2-((S)-2-(methylamino)propanamido)butanoyl)-5-(((R)-1,2,3,4-tetrahydro-naphthalen-1-yl)carbamoyl)pyrrolidin-3-yl)carbamoyl)benzyl)-N-((R)-1-phenylpropyl)-1,2,3,4-tetra-hydroisoquinoline-3-carboxamide], for which the IC50 stood at 320 nM.
Turning to `CN[C@@H](C)C(=O)N[C@H](C(=O)N1CC(NC(=O)C2CC2CN(C(=O)[C@@H]2Cc3ccccc3CN2C(=O)[C@@H](NC(=O)[C@H](C)NC)C(C)(C)C)[C@H](C)c2ccccc2F)C[C@H]1C(=O)NC1CCCc2ccccc21)C(C)(C)C` (stereo partly drawn) [Example 42, (3S)-2-((S)-3,3-Dimethyl-2-((S)-2-(methylamino)propanamido)butanoyl)-N-((2-(((3S,5S)-1-((S)-3,3-dimethyl-2-((S)-2-(methylamino)propanamido)butanoyl)-5-(((R)-1,2,3,4-tetrahydronaphthalen-1-yl)carbamoyl)pyrrolidin-3-yl)carbamoyl)cyclopropyl)methyl)-N-((R)-1-(2-fluorophenyl)ethyl)-1,2,3,4-tetrahydroisoquinoline-3-carboxamide], the IC50 was 330 nM.
In the case of `CN[C@@H](C)C(=O)N[C@H](C(=O)N1C[C@@H](NC(=O)c2ccc(CN(CCc3ccccc3)C(=O)[C@@H]3Cc4ccccc4CN3C(=O)[C@@H](NC(=O)[C@H](C)NC)C(C)(C)C)cc2)C[C@H]1C(=O)N[C@@H]1CCCc2ccccc21)C(C)(C)C` [Example 2, (S)-2-((S)-3,3-Dimethyl-2-((S)-2-(methylamino)propanamido)butanoyl)-N-(4-(((3S,5S)-1-((S)-3,3-dimethyl-2-((S)-2-(methylamino)propanamido)butanoyl)-5-(((R)-1,2,3,4-tetrahydronaphthalen-1-yl)carbamoyl)pyrrolidin-3-yl)carbamoyl)benzyl)-N-phenethyl-1,2,3,4-tetrahydroisoquinoline-3-carboxamide], the half-maximal inhibitory concentration (IC50) came out at 850 nM.
With `CN[C@@H](C)C(=O)N[C@H](C(=O)N1Cc2ccccc2CC1C(=O)N(CC1(C(=O)NC2C[C@@H](C(=O)NC3CCCc4ccccc43)N(C(=O)[C@@H](NC(=O)[C@H](C)NC)C(C)(C)C)C2)CC1)[C@@H](COC)c1ccccc1)C(C)(C)C` (stereo partly drawn) [Example 38, (S)-2-((S)-3,3-Dimethyl-2-((S)-2-(methylamino)propanamido)butanoyl)-N-((1-(((3S,5S)-1-((S)-3,3-dimethyl-2-((S)-2-(methylamino)propanamido)butanoyl)-5-(((R)-1,2,3,4-tetrahydronaphthalen-1-yl)carbamoyl)pyrrolidin-3-yl)carbamoyl)cyclopropyl)methyl)-N-((S)-2-methoxy-1-phenylethyl)-1,2,3,4-tetrahydroisoquinoline-3-carboxamide, 2 TFA] the figure was 220 nM; with `CN[C@@H](C)C(=O)N[C@H](C(=O)N1C[C@@H](NC(=O)CCCN(C(=O)[C@@H]2Cc3ccccc3CN2C(=O)[C@@H](NC(=O)[C@H](C)NC)C(C)(C)C)[C@H](C)c2ccccc2F)C[C@H]1C(=O)N[C@@H]1CCCc2ccccc21)C(C)(C)C` [Example 41, (S)-2-((S)-3,3-Dimethyl-2-((S)-2-(methylamino)propanamido)butanoyl)-N-(4-(((3S,5S)-1-((S)-3,3-dimethyl-2-((S)-2-(methylamino)propanamido)butanoyl)-5-(((R)-1,2,3,4-tetrahydronaphthalen-1-yl)carbamoyl)pyrrolidin-3-yl)amino)-4-oxobutyl)-N-((R)-1-(2-fluorophenyl)ethyl)-1,2,3,4-tetrahydroisoquinoline-3-carboxamide], 110 nM; with `CN[C@@H](C)C(=O)N[C@H](C(=O)N1C[C@@H](NC(=O)C2(CN(C(=O)[C@@H]3Cc4ccccc4CN3C(=O)[C@@H](NC(=O)[C@H](C)NC)C(C)(C)C)[C@H](C)c3cccc(F)c3F)CC2)C[C@H]1C(=O)N[C@@H]1CCCc2ccccc21)C(C)(C)C` [Example 43, (S)-N-((R)-1-(2,3-Difluorophenyl)ethyl)-2-((S)-3,3-dimethyl-2-((S)-2-(methylamino)propanamido)butanoyl)-N-((1-(((3S,5S)-1-((S)-3,3-dimethyl-2-((S)-2-(methylamino)propanamido)butanoyl)-5-(((R)-1,2,3,4-tetrahydronaphthalen-1-yl)carbamoyl)pyrrolidin-3-yl)carbamoyl)cyclopropyl)methyl)-1,2,3,4-tetrahydroisoquinoline-3-carboxamide], 150 nM.
The same measure for `CN[C@@H](C)C(=O)N[C@H](C(=O)N1C[C@@H](NC(=O)c2ccc(CN(C(=O)[C@@H]3Cc4ccccc4CN3C(=O)[C@@H](NC(=O)[C@H](C)NC)C(C)(C)C)[C@H](C)C(c3ccccc3)c3ccccc3)cc2)C[C@H]1C(=O)N[C@@H]1CCCc2ccccc21)C(C)(C)C` [Example 21, (S)-2-((S)-3,3-Dimethyl-2-((S)-2-(methylamino)propanamido)butanoyl)-N-(4-(((3S,5S)-1-((S)-3,3-dimethyl-2-((S)-2-(methylamino)propanamido)butanoyl)-5-(((R)-1,2,3,4-tetra-hydronaphthalen-1-yl)carbamoyl)pyrrolidin-3-yl)carbamoyl)benzyl)-N-((R)-1,1-diphenylpropan-2-yl)-1,2,3,4-tetrahydro-isoquinoline-3-carboxamide]: 2830 nM; for `CN[C@@H](C)C(=O)N[C@H](C(=O)N1CC(NC(=O)CN(C(=O)[C@@H]2Cc3ccccc3CN2C(=O)[C@@H](NC(=O)[C@H](C)NC)C(C)(C)C)C(COC)c2ccccc2)C[C@H]1C(=O)NC1CCCc2ccccc21)C(C)(C)C` (stereo in doubt) [Example 40, (S)-2-((S)-3,3-Dimethyl-2-((S)-2-(methylamino)propanamido)butanoyl)-N-(2-(((3S,5S)-1-((S)-3,3-dimethyl-2-((S)-2-(methylamino)propanamido)butanoyl)-5-(((R)-1,2,3,4-tetrahydronaphthalen-1-yl)carbamoyl)pyrrolidin-3-yl)amino)-2-oxoethyl)-N-((S)-2-methoxy-1-phenylethyl)-1,2,3,4-tetrahydroisoquinoline-3-carboxamide]: 1210 nM; for `CN[C@@H](C)C(=O)N[C@H](C(=O)N1Cc2ccccc2C[C@H]1CN(Cc1cccc(C)c1C)C(=O)c1ccc(C(=O)N[C@H]2C[C@@H](C(=O)N[C@@H]3CCCc4ccccc43)N(C(=O)[C@@H](NC(=O)[C@H](C)NC)C(C)(C)C)C2)cc1)C(C)(C)C` [Example 36, N^1-(((S)-2-((S)-3,3-Dimethyl-2-((S)-2-(methylamino)propanamido)butanoyl)-1,2,3,4-tetrahydro-isoquinolin-3-yl)methyl)-N^4-((3S,5S)-1-((S)-3,3-dimethyl-2-((S)-2-(methylamino)propanamido)butanoyl)-5-(((R)-1,2,3,4-tetrahydro-naphthalen-1-yl)carbamoyl)pyrrolidin-3-yl)-N^1-(2,3-dimethyl-benzyl) terephthalamide]: 1290 nM.
With `CN[C@@H](C)C(=O)N[C@H](C(=O)N1C[C@@H](NC(=O)c2ccc(CN(CCc3ccc4ccccc4c3)C(=O)[C@@H]3Cc4ccccc4CN3C(=O)[C@@H](NC(=O)[C@H](C)NC)C(C)(C)C)cc2)C[C@H]1C(=O)N[C@@H]1CCCc2ccccc21)C(C)(C)C` [Example 12, (S)-2-((S)-3,3-Dimethyl-2-((S)-2-(methylamino)propanamido)butanoyl)-N-(4-(((3S,5S)-1-((S)-3,3-dimethyl-2-((S)-2-(methyl-amino)propanamido)butanoyl)-5-(((R)-1,2,3,4-tetrahydro-naphthalen-1-yl)carbamoyl)pyrrolidin-3-yl)carbamoyl)benzyl)-N-(2-(naphthalen-2-yl)ethyl)-1,2,3,4-tetrahydro-isoquinoline-3-carboxamide] the figure was 1300 nM; with `CNC(C)C(=O)N[C@H](C(=O)N1C[C@@H](NC(=O)c2ccc(C(=O)N(C[C@@H]3Cc4ccccc4CN3C(=O)[C@@H](NC(=O)[C@H](C)NC)C(C)(C)C)[C@H](C)Cc3ccccc3F)cc2)C[C@H]1C(=O)N[C@@H]1CCCc2ccccc21)C(C)(C)C` (stereo in doubt) [Example 17, N^1-(((S)-2-((S)-3,3-dimethyl-2-((S)-2-(methylamino)propanamido)butanoyl)-1,2,3,4-tetra-hydroisoquinolin-3-yl)methyl)-N^4-((3S,5S)-1-((S)-3,3-dimethyl-2-((S)-2-(methyl-amino)propanamido)butanoyl)-5-(((R)-1,2,3,4-tetrahydro-naphthalen-1-yl)carbamoyl)pyrrolidin-3-yl)-N^1-((R)-1-(2-fluorophenyl)propan-2-yl) terephthalamide], 590 nM.
For `CN[C@@H](C)C(=O)N[C@H](C(=O)N1C[C@@H](NC(=O)c2ccc(CN(C(=O)[C@@H]3Cc4ccccc4CN3C(=O)[C@@H](NC(=O)[C@H](C)NC)C(C)(C)C)[C@H](C)c3ccc4ccccc4c3)cc2)C[C@H]1C(=O)N[C@@H]1CCCc2ccccc21)C(C)(C)C` [Example 15, (S)-2-((S)-3,3-Dimethyl-2-((S)-2-(methylamino)propanamido)butanoyl)-N-(4-(((3S,5S)-1-((S)-3,3-dimethyl-2-((S)-2-(methylamino)propanamido)butanoyl)-5-(((R)-1,2,3,4-tetra-hydronaphthalen-1-yl)carbamoyl)pyrrolidin-3-yl)carbamoyl)benzyl)-N-((R)-1-(naphthalen-2-yl)ethyl)-1,2,3,4-tetrahydro-isoquinoline-3-carboxamide], the concentration for half-maximal inhibition (IC50) stood at 330 nM.

The term IC50 denotes the midpoint of a concentration-inhibition curve.
